Measurements: the supplement of paper PMC11417369
± gives the standard deviation of the averaged measurements. This is one part of the list.

What follows are sequences tested on PfAP2-LT AP2 domain (GST-tagged) (assay: gcPBM binding intensity (ln(normalized median fluorescence intensity)); higher = stronger DNA binding).
Outline: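 Binding intensity is defined as the maximum Masliner-normalised natural-log median intensity across replicate spots for either probe orientation. It was measured on an Agilent 4 × 180k array of primer-extended double-stranded 36-bp intergenic genomic probes and negative controls, to which GST-tagged P. falciparum DNA-binding domains made in E. coli were applied for 1 h in 1× PBS with 1% milk, 0.2 mg/ml BSA, 0.5% salmon testes DNA and 0.03% Triton X-100. Detection was by Alexa488 anti-GST antibody and scanning at 488 nm.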

| Sequence | gcPBM binding intensity (ln) |
| --- | --- |
| TCTATTAACTGATGTGCATGTTATAACCTAGAAGTA [TGCATGCA_site359] | 8.63 ± 0.45 |
| AGTTCGAATATATAAAGTACATAATTATATATTTGC [XGTACX_site2604] | 8.81 ± 0.43 |
| TAATATCATTTAGACACACACTCTTACAATATGTAA [CACACA_site5434] | 8.95 ± 0.4 |
| TTACACATATTATATATATATAAAAAAAAAAAATAT [CACACA_negctrl_site1684] | 8.72 ± 0.46 |
| AAAAATCGATACAAGCGTACAAAATAAAATAAAAAT [XGTACX_site5546] | 9.14 ± 0.42 |
| ACCAATAATATACATACACACATAAAGGTTTATATA [CACACA_site315] | 9.06 ± 0.42 |
| TCTTATCCTACTTTTATTTTTACTTTTTTTTCTTAT [CACACA_negctrl_site111] | 8.9 ± 0.59 |
| TATATATATATATGTATATATGTATATCTATATTTA [CACACA_negctrl_site131] | 9.06 ± 0.3 |
| TAAATTGAGTATATTACACACATATAAATATATTAT [CACACA_site4027] | 8.88 ± 0.3 |
| TGGATTCGTATATGTAGTACTATTTATATGTGATTT [XGTACX_site1581] | 8.91 ± 0.33 |
| ATATATATATATATATGTACATAATTAATAATTAGA [XGTACX_site5672] | 9.07 ± 0.56 |
| AAGTGTATATAAAAATGTACATATTTCGATTTAAAT [XGTACX_site4161] | 8.79 ± 0.39 |
| TAATAAATATATAATTGTACTTAAAAGAATATAAAA [XGTACX_site2928] | 8.36 ± 0.57 |
| AATATATACCAACATAAATATATATATATATATATA [TGCATGCA_negctrl_site334] | 9.55 ± 0.53 |
| TTAAAATTAAAATACGTACACACCTTATCTTTTTGG [CACACA_site7982] | 8.82 ± 0.55 |
| GAAAAGATTTAAAAATGTACAAAAGAAAAAAAAAAA [XGTACX_site6916] | 8.65 ± 0.64 |
| TCTTACAAGGAACTAATAAAATTGTAGTTTGTATTT [CACACA_negctrl_site386] | 8.51 ± 0.45 |
| CATATATTTTGAAACACACACATATAAAATATACAT [CACACA_site6664] | 9.26 ± 0.33 |
| TTATTATTTATTTTTTATTATTATTATTTTTTTTTA [XGTACX_negctrl_site76] | 8.38 ± 0.54 |

| Sequence | gcPBM binding intensity (ln) |
| --- | --- |
| AAATCTTAATAAAGTTGTACATAATTATGTTTAATA [XGTACX_site3348] | 8.55 ± 0.49 |
| AAGTATTTCCTAAAATGTACATATAAATAAGTATAT [XGTACX_site1282] | 8.64 ± 0.45 |
| TTTTTTACTATATCAATTACAAAACAAAAAAAAAAA [GTGCAC_negctrl_site683] | 8.12 ± 0.4 |
| TATCATTTGGTCTTTTACTTTTTCTGTTTTTTTTTT [CACACA_negctrl_site976] | 8.87 ± 0.58 |
| AAATATGTTTCAAAAAGTACATTTCTATCTTTTTTT [XGTACX_site7178] | 8.56 ± 0.59 |
| TGATAAAATATTAAATTATTTCTTTATTTAAAGATT [CACACA_negctrl_site370] | 8.11 ± 0.35 |
| TGGTTATAATTGTACGCATGTAATTACATATTCTCT [TGCATGCA_site599] | 8.96 ± 0.45 |
| AATATGCCTCCCCAAAAAAAATATATATATATTTAT [GTGCAC_negctrl_site716] | 8.86 ± 0.15 |
| TATATTTAAATATATACACACATTATCATTTTCATA [CACACA_site1708] | 8.84 ± 0.33 |
| GAATTTTAAATAAACATATAAACAGAAAAAAAAAAA [TGCATGCA_negctrl_site149] | 8.44 ± 0.49 |
| TAGTTTTCTTAAAGATGTACTTATTAAAAATAAACT [XGTACX_site1001] | 8.18 ± 0.35 |
| AATGATTGATTTTATTGTACGTACTCGGAATATGGT [XGTACX_site4976] | 8.93 ± 0.43 |
| TATAGATAAATTATTTGTACTTATAAAATTATTATA [XGTACX_site2870] | 8.26 ± 0.42 |
| TACATAACTTTAATCACACACAAACAAACACATACA [CACACA_site6235] | 9.4 ± 0.28 |
| ATATAATATATATACAAACACACAATTGTGTCCACA [CACACA_site1748] | 9.29 ± 0.47 |
| AAAATACATGGACACACACACACACCGATATATATA [CACACA_site5885] | 10.4 ± 0.21 |
| AAATATACATATATATGTACATATAAATATATTTTA [XGTACX_site5266] | 8.79 ± 0.37 |
| TTATCTTACATATATCATTAAATCATATAACAAAAA [XGTACX_negctrl_site517] | 8.26 ± 0.4 |
| AACCTCATGGACATATGTACACATATACAATTATTT [XGTACX_site6533] | 9.04 ± 0.46 |

| Sequence | gcPBM binding intensity (ln) |
| --- | --- |
| CCTTTATAATTGGAAACACACATATAAAGTATATAT [CACACA_site3900] | 8.7 ± 0.35 |
| GTTATATTTAAAATAGTGCAATAAAAATAATAATAT | 8.73 ± 0.46 |
| CACAAATATACAAATACACACAAATATACGCATATA [CACACA_site2384] | 9.35 ± 0.39 |
| TTATGTATTTTAAATGGTTTTATTATAAAGTTTAAT [CACACA_negctrl_site1470] | 8.44 ± 0.45 |
| GGGAATTATGAAAAAAGTACAGAACAAAAGTAAAAG [XGTACX_site2861] | 8.95 ± 0.57 |
| ATATAGTAAAATTATACACACATGAATTTTCCCATG [CACACA_site1770] | 9.1 ± 0.43 |
| TTTTTTTTTTTTTTTTGTACTCATAAAAATATATTA [XGTACX_site3458] | 8.21 ± 0.52 |
| TACAAAAATGAAAAAAGTACATATCATTTAATATAA [XGTACX_site8066] | 8.69 ± 0.49 |
| ATTACATGATATATCACACACACATATAAATATATA [CACACA_site2830] | 9.49 ± 0.26 |
| CATATATATATATATACACACACACCGTCCGTGTTA [CACACA_site8975] | 9.82 ± 0.2 |
| CACATATAGTTATATGCACACATCTTACACATATAT [CACACA_site3692] | 9.35 ± 0.37 |
| AAAATCACAAAACACACACACACAAAAAAAAAAAAA [CACACA_site1443] | 9.49 ± 0.53 |
| TATCTGTATTTATATACACACATATTCTTTTTACAC [CACACA_site4798] | 9.21 ± 0.42 |
| ATGGTGCAACATTATGCACACCGTTAAATAACTAAT [CACACA_site9280] | 9.02 ± 0.45 |
| AAAAAAGTAAAAAAAGCACACACGAAAAAAAATAAA [CACACA_site2233] | 9.3 ± 0.39 |
| GTTTGAAGAACTATAAATGTATAAATAAAAGTTTAG [TGCATGCA_negctrl_site222] | 8.46 ± 0.52 |
| CATGGGCAAATATTCTCACACATAAACATAAACATA [CACACA_site4597] | 8.86 ± 0.5 |
| GAATAAATAAATAAATGTACATATATATTTATTTAT [XGTACX_site243] | 8.75 ± 0.44 |
